The record followed here is PubChem BioAssay AID485344 (National Center for Advancing Translational Sciences (NCATS), 2010).

Structures are written as SMILES. The whole screen tested about 340,000 compounds, of which about 6,900 (2%) were called active. No stated cut-off is given here; in the data, active means inhibition above about 30%; inactive means below that, where a call was filed. Only a part is listed here, and it is no random draw. Entries without a call were filed so in the source.

The target in the experiment is D(2) dopamine receptor (Homo sapiens) (UniProt P14416). Kind of experiment: HTS Assay for Allosteric Antagonists of the Human D2 Dopamine Receptor: Primary Screen for Antagonists. Further: 0% is about no effect. To be noted: HEK293 TREx D2 cells, calcium flux, dopamine EC80; at 10 µM; stronger effect = higher value. In short, it runs like this: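 Cells plated overnight at 30 C with tetracycline; no-wash calcium dye, 30–90 min RT; 10 s baseline; compound pinned; 180 s read; EC80 dopamine added; another 180 s read.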
Chain of UniProt P14416 (P14416 whole entry, looked up): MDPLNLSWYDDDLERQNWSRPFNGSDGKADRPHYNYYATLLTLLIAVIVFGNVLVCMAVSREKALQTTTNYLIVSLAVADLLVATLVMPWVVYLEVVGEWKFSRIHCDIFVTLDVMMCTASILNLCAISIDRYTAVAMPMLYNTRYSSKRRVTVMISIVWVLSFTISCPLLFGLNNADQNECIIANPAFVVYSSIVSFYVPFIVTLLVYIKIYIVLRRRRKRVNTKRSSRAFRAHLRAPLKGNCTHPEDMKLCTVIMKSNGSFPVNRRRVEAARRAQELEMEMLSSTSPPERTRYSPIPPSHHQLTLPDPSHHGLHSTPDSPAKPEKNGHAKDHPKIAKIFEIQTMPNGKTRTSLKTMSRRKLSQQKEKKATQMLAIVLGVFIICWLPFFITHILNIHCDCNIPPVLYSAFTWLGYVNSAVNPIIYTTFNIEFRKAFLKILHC
A word on the inhibition: it is the change of the read-out against control, counted positive when it falls. For `COc1cccc(Cn2c(=O)n(-c3ccc(Br)cc3F)c(=O)c3sc4ccccc4c32)c1`, the inhibition was 15.3%.

With `CCCCNC(=O)CSc1nc2ccccc2nc1Cc1ccc(Cl)cc1`, the inhibition came to 6.63%.

`CCOc1cccc2cc(-c3nc4sc5c(c4c(=O)[nH]3)CCC(C)C5)c(=O)oc12` (stereo unspecified): the inhibition is 19.3%.

Take `Cc1ccc(NC(=O)CC2Nc3cccc4cccc(c34)NC2=O)cc1` (stereo unspecified): the inhibition came out at 12.1%.

On to `COc1ccc(N(Cc2ccccc2)C(=O)c2nc(SC)ncc2Cl)cc1`, for which the inhibition came to 17.2%.

For `COc1ccc(NC(=O)CCNS(=O)(=O)c2cccc3nsnc23)cc1OC`, the inhibition is 13.5%.

Regarding `COc1ccc(Cl)cc1NC(=O)CCCn1c(C)c2cnn(-c3ccccc3)c(=O)c2c1C`, the inhibition is -3.7%.

`COc1ccc(C2=Nc3ccc(C)cc3NC(c3ccc(Cl)cc3)=N2)cc1`: the inhibition is 9.61%.

Consider `Cc1ccc(Cl)cc1N1C(=O)N(Cc2ccc(C#N)cc2)c2ccccc2S1(=O)=O`, for which the inhibition is -15%.

Turning to `COc1ccc(CNC(=O)c2cccc(NC(=O)N3CCSc4ncccc43)c2)cc1`, the inhibition was 10.1%.

Regarding `Cc1cccc(NC(=S)N(CCCN2CCOCC2)C(C)c2cc3ccccc3o2)c1` (stereo unspecified), the inhibition was active: 35.4%.

For `COc1ccc(-c2noc(N3CCC(C(=O)Nc4ccc(C)c(F)c4)CC3)n2)cc1OC`, the inhibition worked out at 5.8%.

For the molecule `Cc1ccccc1NC(=O)c1c(O)c2cccc3c2n(c1=O)CCC3`, the inhibition is active: 46.5%.

`O=C(c1ccc2c(c1)N(Cc1ccc(F)cc1)C(=O)c1ccccc1S2(=O)=O)N1CCC(Cc2ccccc2)CC1`: the inhibition stood at 16.5%.

In the case of `COc1ccc(-n2ccn(Cc3ccc(C)cc3)c(=O)c2=O)cc1OC`, the inhibition was found to be 4.84%.

On to `O=C(CSc1ccc2ccccc2n1)Nc1nsc(-c2ccc(Cl)cc2)n1`, for which the inhibition amounted to 2.02%.

In the case of `CCN1CCN(c2nc(N(C)c3ccccc3)nc(N)c2[N+](=O)[O-])CC1`, the inhibition was active: 49.5%.

Turning to `O=C(CN1CCN(c2ccc(O)cc2)CC1)N1CCc2ccccc21`, the inhibition is active: 39.6%.

For the molecule `COc1ccc(NC(=O)CN(C)S(=O)(=O)c2ccc3[nH]c4c(c3c2)CCCC4)cc1Cl`, the inhibition is -1.41%.

Regarding `CC(=O)N1c2nc(-c3ccco3)nn2C2(CCCCC2)[C@@H]2CCCC[C@@H]21`, the inhibition is 19.1%.

Take `COc1ccc(Cn2c(SCc3ccc(C(=O)NCc4ccccc4F)cc3)nc3cccnc32)cc1`: the inhibition came to 2.91%.

Turning to `Cc1cccc(-n2c(=O)c3c(c4cc(C)ccc4n3C)n(Cc3ccccc3F)c2=O)c1`, the inhibition was 6.47%.

For the molecule `CC1=C(C(=O)OCC2CCCCC2)C(c2c(F)cccc2Cl)CC(=O)N1` (stereo unspecified), the inhibition was determined as 10.7%.

For `COc1cc(OC)c(NC(=O)Nc2ccccc2OCc2cc(=O)n3cc(C)ccc3n2)cc1Cl`, the inhibition was found to be 19.6%.

Regarding `CCc1ccc(S(=O)(=O)c2nnn3c2nc(NC2CCCC2)c2sccc23)cc1`, the inhibition was 2.39%.

As to `COc1ccc(C)cc1NC(=O)CCS(=O)(=O)c1ccc2c(c1)CC(=O)N2C`, the inhibition came out at 18%.

On to `COc1ccc(CCNC(=O)CCc2c(C)nc3nc(C)nn3c2C)cc1OC`, for which the inhibition is -9.92%.

On to `CCOC(=O)c1sc(NC(=O)COc2ccccc2Cl)c(C(=O)OCC)c1C`, for which the inhibition turned out to be 0.875%.

On to `O=C(Nc1ccc(O)c(-c2nc3ccccc3o2)c1)c1ccco1`, for which the inhibition was 6.98%.

On to `Cc1ccccc1NC(=O)CSc1nc2c(oc3ccccc32)c(=O)n1-c1ccccc1F`, for which the inhibition was -2.2%.

On to `COc1ccc(C(=O)/C=C/Nc2ccc([N+](=O)[O-])cc2C)cc1OC`, for which the inhibition was active: 40%.

As for `CC1CCc2sc(C(=O)NC3CCN(Cc4ccccc4)CC3)cc2C1` (stereo unspecified), the inhibition was active: 83.4%.

Turning to `CC1CCN(C(=O)c2cc(-c3ccc(Cl)cc3)on2)CC1`, the inhibition is 11.5%.

For the molecule `COc1ccccc1OCc1ccc(C(=O)N2CCN(C(=O)c3ccco3)CC2)cc1`, the inhibition was active: 35.4%.

With `COc1cc(C(=O)Nc2ccc(OCc3cc(=O)n4cc(C)sc4n3)cc2)cc(OC)c1OC`, the inhibition was 12.9%.

For the molecule `O=C(NCCc1ccccc1)c1c[nH]c2ccc(S(=O)(=O)Nc3ccccc3F)cc2c1=O`, the inhibition turned out to be 0.282%.

As to `COc1ccc(NC(=O)Nc2nnc(N(C)C3CCCCC3)s2)c(OC)c1`, the inhibition came to 18.5%.

Consider `O=C(CSc1nc2c(c(=O)[nH]1)CN(Cc1ccc3c(c1)OCO3)CC2)Nc1ccc(F)cc1`, for which the inhibition is 1.35%.

Consider `CCCOc1cccc(C(=O)Nc2ccc(-c3nc4ccccc4o3)cc2)c1`, for which the inhibition is -8.68%.

Take `COc1cc(OC)cc(-n2c(=O)c3ccccc3n(CC(=O)NCCc3ccc(OC)c(OC)c3)c2=O)c1`: the inhibition was -13%.

As to `COc1ccc2cc(CNc3ccc(OC)c(OC)c3)c(=O)n(CC(=O)Nc3ccc(C)cc3)c2c1`, the inhibition is -11.8%.

On to `N#Cc1ccc(CSc2ccc(S(=O)(=O)N3CCCC3)cn2)cc1`, for which the inhibition is active: 30%.

For `CCCNC(=O)CN1C(=O)c2cccnc2Sc2ccccc21`, the inhibition was -5.25%.

Regarding `Cc1cccc(NC(=O)CSc2nc(C)c(Cc3ccccc3)c(=O)[nH]2)c1`, the inhibition is 28.4%.

For the molecule `COc1ccc(-c2nc(CNS(=O)(=O)c3ccc(F)cc3)cs2)cc1`, the inhibition amounted to 4.06%.

On to `Cc1ccc(C)c(N2CCN(C(=O)c3c4c(nc5ccccc35)C(=O)N(C3CCCCC3)C4)CC2)c1`, for which the inhibition is -10.9%.

On to `COc1ccccc1N1CCN(C(=O)c2c3c(nc4ccccc24)C(=O)N(C2CCCCC2)C3)CC1`, for which the inhibition was -8.1%.

`O=C(Cn1cc(S(=O)(=O)Cc2ccc(F)cc2)c2ccccc21)NCc1ccccc1`: the inhibition is 4.56%.

As for `COc1ccccc1CCNC(=O)c1cccn1-c1nnc(N2CCCCC2)s1`, the inhibition came to 4.33%.

For `CCOc1ccccc1NC(=O)CSc1cc(=O)n(CC)c2ccccc12`, the inhibition is -4.57%.

As to `CCOc1ccc(-c2cc(C(F)(F)F)c(C#N)c(SCC(=O)Nc3ccccc3)n2)cc1`, the inhibition was -2.23%.

For the molecule `CC(=O)c1cc(-c2ccccc2)n(CCC(=O)Nc2cc(C)cc(C)c2)c1C`, the inhibition was -7.22%.

Consider `CCc1ccc(NC(=O)c2ccc(CN3C(=O)C(C)=C(c4ccc(C)cc4)S3(=O)=O)cc2)cc1`, for which the inhibition stood at 15.5%.

As for `COc1ccc(-c2onc(C)c2C)cc1S(=O)(=O)N1CCC(C)CC1`, the inhibition stood at 3.83%.

As to `Cn1c(C(=O)NCc2cccc(F)c2)cc2cc(S(=O)(=O)N3CCCCC3)ccc21`, the inhibition was 8.55%.

With `COc1cccc(-c2nc(C(N)=O)c3c(n2)n(-c2ccc4c(c2)OCO4)c(=O)n3C)c1OC`, the inhibition was -27.6%.

Regarding `CSc1nc2c([nH]c3ccccc32)c(=O)n1-c1ccc(F)cc1`, the inhibition turned out to be 1.06%.

Regarding `Cc1ccc(-n2ncc3c(NCCC4=CCCCC4)ncnc32)cc1C`, the inhibition came to 26.6%.

As to `O=C(CNS(=O)(=O)c1ccc(Br)s1)N1CCN(c2ccccc2F)CC1`, the inhibition was found to be 5.13%.

Consider `Cc1nn(CC(=O)N2CCN(c3ccccc3)CC2)c(=O)c2cccn12`, for which the inhibition is 3.1%.

Regarding `CCc1nn(CC(=O)NCc2cccc(OC)c2)c(=O)c2cc3cc(F)ccc3n12`, the inhibition was 0.321%.
